# Where “and” joins values, the source holds several entries; their conditions need not be identical. Equal entries are not always repeated. About 50,000 (12%) of roughly 420,000 compounds were called active. Inconclusive results, whose numbers are uncertain, are shown with a selection of clear calls. Calls follow the shape of the dose curve; as a rule, active = well fitted inhibition curve with a large enough effect; inconclusive = small, poorly fitted or top-dose-only effect; inactive = flat fitted curve, though single readings scatter. Potencies of inconclusive entries are doubtful fits and often do not repeat.
# Assay: qHTS for Inhibitors of human tyrosyl-DNA phosphodiesterase 1 (TDP1): qHTS in cells in presence of CPT; also: nearly all actives have a fitted effect of over 55% in size
# Conditions: chicken DT40 Tdp1-/-;hTDP1 cells + 20 nM CPT, ATP luminescence, 48 h; activity change, negative = growth inhibition: at 46.2 µM (top of the series) unless noted
# Summary of the method: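 Chicken DT40 Tdp1-/- cells stably complemented with human TDP1 were seeded at 400 cells/well in medium containing 20 nM camptothecin, exposed to pin-transferred compounds, and grown at 37 °C for at least 48 hr. Viability was read as ATP luminescence.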
# % is scaled to controls: 0 for no effect and ±100 for the full control effect; potency is read from the fitted curve at half-maximal effect; tags tell the direction and shape of the fitted curve.
Compound,Potency,"activity change, negative = growth inhibition"
COP(=S)(OC)Oc1cc(Cl)c(Cl)cc1Cl,inactive,
O=C(CCNC(=O)N1C[C@H]2C[C@@H](C1)c1cccc(=O)n1C2)Nc1cccc(Cl)c1,,inactive: 2.5%
COc1ccc(-n2c(CNCCc3ccc(C)cc3)nc3ccccc3c2=O)cc1,"inconclusive: 20.6 µM [inhibitor, single point]",
CCCSc1nc2ccccc2c(=O)n1-c1ccccc1OC,"inconclusive: 23.1 µM [inhibitor, single point]",
Cc1cc(O)c(CN2CC=C(c3ccccc3)CC2)cc1C(C)C,"inconclusive: 13 µM [inhibitor, partial curve, poor fit]",
CC(C)(C)N1CC(C(=O)c2ccccc2)C1c1ccccc1 (stereo not given),,inactive: -21.1%
COc1ccc(S(=O)(=O)Nc2ccccc2OC)cc1N=Nc1c(O)[nH]c(=S)[nH]c1=O,"inconclusive: 16.4 µM [inhibitor, single point]",
Cc1ccc(C)c(N2CCN(C(=O)CCS(=O)(=O)c3ccc4c(c3)oc(=O)n4C)CC2)c1,active: 16.4 µM,
Cc1cccc(N2C(=O)NC(=O)/C(=C\c3cc(C)n(-c4sc5c(c4C#N)CCCC5)c3C)C2=O)c1C,"inconclusive: 23.1 µM [inhibitor, single point]",
COc1ccc(C(CNC(=O)c2cc(S(=O)(=O)N3CCCCC3)ccc2C)N2CCCC2)cc1 (stereo not given),"inconclusive: 20.6 µM [inhibitor, partial curve]",
CCOC(=O)c1c(-n2c(C)cc(C=C3C(=O)NC(=O)NC3=O)c2C)sc2c1CCCC2,"inconclusive: 25.9 µM [inhibitor, single point]",
CCCCNC(=O)c1cc(-c2cccnc2)nc2ccc(S(=O)(=O)NCCCC)cc12,active: 20.6 µM,
CCCc1nc2ccccc2c(=O)n1-c1ccc(OC)cc1,"inconclusive: 16.4 µM [inhibitor, partial curve, poor fit]",
CCC(=O)OC1CCC2C3CCc4cc(O)ccc4C3CC[C@]12C (stereo not given in full),active: 20.6 µM,
Cc1c(N)c(C)c([N+](=O)[O-])c(C)c1[N+](=O)[O-],"inconclusive: 29.1 µM [inhibitor, single point]",
Cc1ccc(C(=O)CN2CCOCC2)cc1,,inactive: -2.41%
O=c1oc2ccccc2c(O)c1C(c1ccc([N+](=O)[O-])cc1)c1c(O)c2ccccc2oc1=O,,inconclusive: -3% [inhibitor]
CCOC(=O)[C@]12Cc3cc(OC)c(OC)cc3[C@H]1N(Cc1ccccc1)C(=O)c1ccccc12,"inconclusive: 35.5 µM [inhibitor, single point] and inconclusive: 29.1 µM [inhibitor, single point]",
CCCOc1ccc(C(=O)NC(=S)N2C[C@H]3C[C@H](C2)c2cccc(=O)n2C3)cc1,,inactive: 0.924%
COc1ccc(-c2nc3ccc(C(=O)N4CCC5(CC4)OCCO5)cc3nc2-c2ccc(OC)cc2)cc1,"inconclusive: 29.1 µM [inhibitor, single point]",
CNC(C)CCC=C(C)C (stereo not given),"inconclusive: 33.5 µM [inhibitor, partial curve, poor fit]",
C#CC(C)(CC)NC(=O)Cn1nnc(-c2ccc(OCc3ccccc3C)cc2)n1 (stereo not given),"inconclusive: 29.1 µM [inhibitor, single point]",
CN1CCN(Cc2nc3ccccc3n2C)CC1,,inactive: -0.593%

Compound,Potency,"activity change, negative = growth inhibition"
CCCCCCCCC(=O)NCc1ccc(O)c(OC)c1,"inconclusive: 33.5 µM [inhibitor, single point]",
COc1ccccc1Sc1ccccc1CC(C)N (stereo not given),active: 14.6 µM,
COc1ccc(NC(=O)CSc2nc(-c3cccs3)cc(C(F)(F)F)n2)cc1Cl,active: 16.4 µM,
COc1ccc(OC)c(N2Cc3ccccc3C2=N)c1,"inconclusive: 8.2 µM [inhibitor, single point]",
CC(=CCOc1ccc2ccc(=O)oc2c1)C1=CC(=O)C(C)(C)O1,active: 5.8 µM,
CCOC(=O)[C@@]1(C#N)C(c2ccc(Cl)c(Cl)c2)[C@H](C(N)=O)N2C=C(C(C)=O)C=C[C@H]21 (stereo not given in full),"inconclusive: 29.1 µM [inhibitor, single point]",
CCCCCNC(=O)C(c1ccncc1)n1c(=O)c(-c2cc3ccccc3[nH]2)nc2ccccc21 (stereo not given),active: 16.4 µM,
Fc1ccc(CNCCc2c[nH]c3ccccc23)cc1,"inconclusive: 20.6 µM [inhibitor, single point]",
CN1C(=O)C(O)N=C(c2ccccc2)c2cc(Cl)ccc21 (stereo not given),,inactive: 7.13%
CC(=O)c1c(C)n(Cc2ccccc2Cl)c2ccc(O)cc12,"inconclusive: 20.6 µM [inhibitor, partial curve, poor fit]",
CCOC(=O)c1sc(/N=C/c2c(O)n(-c3ccccc3)c(=O)[nH]c2=O)c(C#N)c1C,"inconclusive: 29.1 µM [inhibitor, single point]",
Cn1c(O)c(/C=C2/C=CC=N2)c(=O)[nH]c1=O,active: 16.4 µM,
O=S(=O)(O)C(F)(F)C(F)(F)C(F)(F)C(F)(F)F,,inactive: 13.6% [at 92.5 µM]
O=C(NC1CCCCC1)[C@@H]1CC=C[C@@H]2CCN(Cc3ccccc3)C(=O)[C@@H]21,inactive,
NS(=O)(=O)c1ccc(CCNc2nn3c(-c4ccc(F)c(Cl)c4)cnc3s2)cc1,active: 16.4 µM,
Cc1cc(OC(=O)c2ccco2)c2c3c(c(=O)oc2c1)CCC3,"inconclusive: 23.1 µM [inhibitor, single point]",
C/C=C(\C)C(=O)N[C@@H](c1ccccc1)[C@@H](O)C(=O)O[C@H]1C[C@@]2(O)[C@@H](OC(=O)c3ccccc3)C3[C@](C)(C(=O)[C@H](O)C(=C1C)C2(C)C)[C@@H](O)C[C@H]1OC[C@@]31OC(C)=O (stereo not given in full),active: 0.0461 µM,
COC(=O)c1cn(CCOc2ccccc2)c2ccccc12,"inconclusive: 29.1 µM [inhibitor, single point]",
CCOC(=O)C12C(=O)OCC1C2c1ccccc1 (stereo not given),,inactive: 6.91%
NC(C(=O)O)c1cc(=O)[nH]o1 (stereo not given),inactive,
CN(C(=O)c1ccco1)C1(c2ccccc2Cl)CCCCC1=O (stereo not given),,inactive: -11.8%
CCC(C(N)=O)N1CCCC1=O (stereo not given),"inconclusive: 13.3 µM [inhibitor, partial curve, poor fit]",

# Source: PubChem BioAssay AID686979 (National Center for Advancing Translational Sciences (NCATS), 2013)
